Single values are uncertain, as repeats are few or missing.
Experiments:
CHO-K1 [1] = assay: relative survival (nuclei to bead ratio vs DMSO control) (% of vehicle control); higher = more surviving cells
Procedure: (§1)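 Flow-cytometric in vitro micronucleus assay (Litron MicroFlow) in CHO-K1 cells in 96-well plates, 19 concentrations (4.5-200 µM, n=1 per concentration). Without S9, cells were exposed for 24 h and sampled at 48 h. With Aroclor 1254-induced rat liver S9, cells were exposed for 3-4 h and sampled at 27-28 h. Read-outs are %MN and %hypodiploid nuclei relative to nucleated events, and relative survival as the nuclei-to-bead ratio versus the 1% DMSO vehicle control (x100).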

CHO-K1 [2] = assay: micronucleus frequency (% of nucleated events); higher = more micronuclei (genotoxic)
CHO-K1 [3] = assay: hypodiploid nuclei frequency (% of nucleated events); higher = more hypodiploid events (aneugenic)
Procedure: as §1
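Wherever hypodiploid nuclei frequency (% of nucleated events) is given: hypodiploid nuclei gated on a flow cytometer with 488 nm excitation after SYTOX Green staining, cultures at 37 °C, positive controls vinblastine without S9 and cyclophosphamide with S9.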
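Wherever micronucleus frequency (% of nucleated events) is given: cells lysed with nuclei stained by SYTOX Green, then micronucleus-gated events counted against nucleated events by flow cytometry with 488 nm excitation.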
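Wherever relative survival (nuclei to bead ratio vs DMSO control) is given: Lysed-cell nuclei stained with SYTOX Green and counted against counting beads by flow cytometry at 488 nm excitation, with vinblastine (no S9) and cyclophosphamide (plus S9) as positive controls.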

CCCCOC(=O)c1ccc(O)cc1 [Butylparaben]
Details	hypodiploid nuclei frequency, CHO-K1 [3] [%]	micronucleus frequency, CHO-K1 [2] [%]	relative survival, CHO-K1 [1]
concentration: 4.5 (µM), S9 metabolic activation: with S9, exposure time: 3-4 hours	0.2	1.3	61.7
concentration: 4.5 (µM), S9 metabolic activation: without S9, exposure time: 24 hours	0.6	1.42	89.9
concentration: 5.63 (µM), S9 metabolic activation: with S9, exposure time: 3-4 hours	0.14	1.18	71.2
concentration: 5.63 (µM), S9 metabolic activation: without S9, exposure time: 24 hours	0.7	1.12	102
concentration: 7.04 (µM), S9 metabolic activation: with S9, exposure time: 3-4 hours	0.16	1.02	59.1
concentration: 7.04 (µM), S9 metabolic activation: without S9, exposure time: 24 hours	0.66	1.3	76.5
concentration: 8.8 (µM), S9 metabolic activation: with S9, exposure time: 3-4 hours	0.2	1.48	80.8
concentration: 8.8 (µM), S9 metabolic activation: without S9, exposure time: 24 hours	0.6	1.48	65
concentration: 11 (µM), S9 metabolic activation: with S9, exposure time: 3-4 hours	0.12	1.42	74.4
concentration: 11 (µM), S9 metabolic activation: without S9, exposure time: 24 hours	0.68	1.1	96.8
concentration: 13.7 (µM), S9 metabolic activation: with S9, exposure time: 3-4 hours	0.26	1.36	86.4
concentration: 13.7 (µM), S9 metabolic activation: without S9, exposure time: 24 hours	1	1.06	81.1
concentration: 17.2 (µM), S9 metabolic activation: with S9, exposure time: 3-4 hours	0.2	1.06	83.5
concentration: 17.2 (µM), S9 metabolic activation: without S9, exposure time: 24 hours	0.96	1.22	75.3
concentration: 21.5 (µM), S9 metabolic activation: with S9, exposure time: 3-4 hours	0.28	1.12	80.2
concentration: 21.5 (µM), S9 metabolic activation: without S9, exposure time: 24 hours	0.92	1.42	68.8
concentration: 26.8 (µM), S9 metabolic activation: with S9, exposure time: 3-4 hours	0.24	1.22	56.9
concentration: 26.8 (µM), S9 metabolic activation: without S9, exposure time: 24 hours	0.86	1	92.2
concentration: 33.6 (µM), S9 metabolic activation: with S9, exposure time: 3-4 hours	0.28	0.88	57.1
concentration: 33.6 (µM), S9 metabolic activation: without S9, exposure time: 24 hours	0.82	1.1	81.1
concentration: 41.9 (µM), S9 metabolic activation: with S9, exposure time: 3-4 hours	0.22	1.4	55.3
concentration: 41.9 (µM), S9 metabolic activation: without S9, exposure time: 24 hours	0.76	1.14	85.7
concentration: 52.4 (µM), S9 metabolic activation: with S9, exposure time: 3-4 hours	0.18	0.9	53.6
concentration: 52.4 (µM), S9 metabolic activation: without S9, exposure time: 24 hours	0.7	1.46	86.3
concentration: 65.5 (µM), S9 metabolic activation: with S9, exposure time: 3-4 hours	0.2	1.62	60.7
concentration: 65.5 (µM), S9 metabolic activation: without S9, exposure time: 24 hours	0.8	1.5	72.8
concentration: 81.9 (µM), S9 metabolic activation: with S9, exposure time: 3-4 hours	0.2	1.17	45.9
concentration: 81.9 (µM), S9 metabolic activation: without S9, exposure time: 24 hours	0.82	1.36	68.3
concentration: 102 (µM), S9 metabolic activation: with S9, exposure time: 3-4 hours	0.34	1.58	51.4
concentration: 102 (µM), S9 metabolic activation: without S9, exposure time: 24 hours	0.92	1.32	61.5
concentration: 128 (µM), S9 metabolic activation: with S9, exposure time: 3-4 hours	0.3	1.5	60.3
concentration: 128 (µM), S9 metabolic activation: without S9, exposure time: 24 hours	0.76	1.6	64.5
concentration: 160 (µM), S9 metabolic activation: with S9, exposure time: 3-4 hours	0.26	1.74	62.9
concentration: 160 (µM), S9 metabolic activation: without S9, exposure time: 24 hours	0.7	1.56	55.8
concentration: 200 (µM), S9 metabolic activation: with S9, exposure time: 3-4 hours	0.44	2.66	51
concentration: 200 (µM), S9 metabolic activation: without S9, exposure time: 24 hours	0.84	1.48	55

Oc1ccc2ccccc2c1N=Nc1ccccc1 [C.I. Solvent Yellow 14]
Details	hypodiploid nuclei frequency, CHO-K1 [3] [%]	micronucleus frequency, CHO-K1 [2] [%]	relative survival, CHO-K1 [1]
concentration: 4.5 (µM), S9 metabolic activation: with S9, exposure time: 3-4 hours	0.3	1.34	110
concentration: 4.5 (µM), S9 metabolic activation: without S9, exposure time: 24 hours	1.66	1.98	112
concentration: 5.63 (µM), S9 metabolic activation: with S9, exposure time: 3-4 hours	0.2	1.96	111
concentration: 5.63 (µM), S9 metabolic activation: without S9, exposure time: 24 hours	2.36	2.28	113
concentration: 7.04 (µM), S9 metabolic activation: with S9, exposure time: 3-4 hours	0.36	1.58	101
concentration: 7.04 (µM), S9 metabolic activation: without S9, exposure time: 24 hours	3.26	2.38	122
concentration: 8.8 (µM), S9 metabolic activation: with S9, exposure time: 3-4 hours	0.36	1.78	113
concentration: 8.8 (µM), S9 metabolic activation: without S9, exposure time: 24 hours	1.88	1.78	121
concentration: 11 (µM), S9 metabolic activation: with S9, exposure time: 3-4 hours	0.26	1.52	99.7
concentration: 11 (µM), S9 metabolic activation: without S9, exposure time: 24 hours	2.1	1.82	111
concentration: 13.7 (µM), S9 metabolic activation: with S9, exposure time: 3-4 hours	0.26	1.98	109
concentration: 13.7 (µM), S9 metabolic activation: without S9, exposure time: 24 hours	1.7	2.14	107
concentration: 17.2 (µM), S9 metabolic activation: with S9, exposure time: 3-4 hours	0.28	2.48	101
concentration: 17.2 (µM), S9 metabolic activation: without S9, exposure time: 24 hours	3.52	2.28	96.5
concentration: 21.5 (µM), S9 metabolic activation: with S9, exposure time: 3-4 hours	0.24	3.04	103
concentration: 21.5 (µM), S9 metabolic activation: without S9, exposure time: 24 hours	4.66	1.7	112
concentration: 26.8 (µM), S9 metabolic activation: with S9, exposure time: 3-4 hours	0.32	2.8	121
concentration: 26.8 (µM), S9 metabolic activation: without S9, exposure time: 24 hours	–	3.76	47.3
concentration: 33.6 (µM), S9 metabolic activation: with S9, exposure time: 3-4 hours	0.3	2.54	99.2
concentration: 33.6 (µM), S9 metabolic activation: without S9, exposure time: 24 hours	–	4.52	44.6
concentration: 41.9 (µM), S9 metabolic activation: with S9, exposure time: 3-4 hours	0.62	3.14	103
concentration: 41.9 (µM), S9 metabolic activation: without S9, exposure time: 24 hours	–	–	30.2
concentration: 52.4 (µM), S9 metabolic activation: with S9, exposure time: 3-4 hours	0.26	2.68	92.4
concentration: 52.4 (µM), S9 metabolic activation: without S9, exposure time: 24 hours	–	–	29.3
concentration: 65.5 (µM), S9 metabolic activation: with S9, exposure time: 3-4 hours	0.2	1.78	115
concentration: 65.5 (µM), S9 metabolic activation: without S9, exposure time: 24 hours	–	–	35.1
concentration: 81.9 (µM), S9 metabolic activation: with S9, exposure time: 3-4 hours	0.4	2.86	94.4
concentration: 81.9 (µM), S9 metabolic activation: without S9, exposure time: 24 hours	–	–	37.9
concentration: 102 (µM), S9 metabolic activation: with S9, exposure time: 3-4 hours	0.84	2.2	74.6
concentration: 102 (µM), S9 metabolic activation: without S9, exposure time: 24 hours	–	–	33.9
concentration: 128 (µM), S9 metabolic activation: with S9, exposure time: 3-4 hours	0.6	2.3	85.9
concentration: 128 (µM), S9 metabolic activation: without S9, exposure time: 24 hours	–	–	25.2
concentration: 160 (µM), S9 metabolic activation: with S9, exposure time: 3-4 hours	2.66	2.38	75.9
concentration: 160 (µM), S9 metabolic activation: without S9, exposure time: 24 hours	–	–	29.3
concentration: 200 (µM), S9 metabolic activation: with S9, exposure time: 3-4 hours	3.9	2.28	77.3
concentration: 200 (µM), S9 metabolic activation: without S9, exposure time: 24 hours	–	–	24.2

Cc1ccc(-c2cc(C(F)(F)F)nn2-c2ccc(S(N)(=O)=O)cc2)cc1 [Celecoxib]
Details	hypodiploid nuclei frequency, CHO-K1 [3] [%]	micronucleus frequency, CHO-K1 [2] [%]	relative survival, CHO-K1 [1]
concentration: 4.5 (µM), S9 metabolic activation: with S9, exposure time: 3-4 hours	0.3	0.96	135
concentration: 4.5 (µM), S9 metabolic activation: without S9, exposure time: 24 hours	0.8	0.98	98.5
concentration: 5.63 (µM), S9 metabolic activation: with S9, exposure time: 3-4 hours	0.26	0.96	116
concentration: 5.63 (µM), S9 metabolic activation: without S9, exposure time: 24 hours	0.52	0.96	102
concentration: 7.04 (µM), S9 metabolic activation: with S9, exposure time: 3-4 hours	0.28	1.08	135
concentration: 7.04 (µM), S9 metabolic activation: without S9, exposure time: 24 hours	0.54	0.8	93.6
concentration: 8.8 (µM), S9 metabolic activation: with S9, exposure time: 3-4 hours	0.3	0.88	121
concentration: 8.8 (µM), S9 metabolic activation: without S9, exposure time: 24 hours	0.62	1.12	90.2
concentration: 11 (µM), S9 metabolic activation: with S9, exposure time: 3-4 hours	0.36	1.08	123
concentration: 11 (µM), S9 metabolic activation: without S9, exposure time: 24 hours	0.7	1.08	88.2
concentration: 13.7 (µM), S9 metabolic activation: with S9, exposure time: 3-4 hours	0.2	1.06	117
concentration: 13.7 (µM), S9 metabolic activation: without S9, exposure time: 24 hours	0.54	1.26	74.1
concentration: 17.2 (µM), S9 metabolic activation: with S9, exposure time: 3-4 hours	0.3	1.58	106
concentration: 17.2 (µM), S9 metabolic activation: without S9, exposure time: 24 hours	0.62	1.4	72.4
concentration: 21.5 (µM), S9 metabolic activation: with S9, exposure time: 3-4 hours	0.16	1.3	101
concentration: 21.5 (µM), S9 metabolic activation: without S9, exposure time: 24 hours	0.64	1	71.7
concentration: 26.8 (µM), S9 metabolic activation: with S9, exposure time: 3-4 hours	0.23	1.51	57.7
concentration: 26.8 (µM), S9 metabolic activation: without S9, exposure time: 24 hours	1.4	0.6	64.6
concentration: 33.6 (µM), S9 metabolic activation: with S9, exposure time: 3-4 hours	0.38	1.5	62.5
concentration: 33.6 (µM), S9 metabolic activation: without S9, exposure time: 24 hours	–	–	32.7
concentration: 41.9 (µM), S9 metabolic activation: with S9, exposure time: 3-4 hours	0.42	0.7	134
concentration: 41.9 (µM), S9 metabolic activation: without S9, exposure time: 24 hours	1.28	0.5	54.7
concentration: 52.4 (µM), S9 metabolic activation: with S9, exposure time: 3-4 hours	0.28	1.14	121
concentration: 52.4 (µM), S9 metabolic activation: without S9, exposure time: 24 hours	0.86	0.76	54.7
concentration: 65.5 (µM), S9 metabolic activation: with S9, exposure time: 3-4 hours	0.32	1.28	115
concentration: 65.5 (µM), S9 metabolic activation: without S9, exposure time: 24 hours	0.78	0.76	44.4
concentration: 81.9 (µM), S9 metabolic activation: with S9, exposure time: 3-4 hours	0.3	1.56	91
concentration: 81.9 (µM), S9 metabolic activation: without S9, exposure time: 24 hours	0.52	0.8	40.6
concentration: 102 (µM), S9 metabolic activation: with S9, exposure time: 3-4 hours	0.37	3.92	59.2
concentration: 102 (µM), S9 metabolic activation: without S9, exposure time: 24 hours	–	–	36.2
concentration: 128 (µM), S9 metabolic activation: without S9, exposure time: 24 hours	–	–	17.4
